Data reported in PubChem BioAssay AID1347073 (National Center for Advancing Translational Sciences (NCATS), 2019).
The whole screen tested about 45,000 compounds, of which about 200 (0.44%) were called active. Not shown: some 7% with an inconclusive outcome. The call rests on the fitted dose curve; in most records, active means well fitted activation curve with a large enough effect; inconclusive means small, poorly fitted or top-dose-only effect; inactive means no such curve, though single readings can be large or run the other way. The list shows a part of the results.

Assay: qHTS of TDP-43 Inhibitors: NCGC Sytravon Library Screen; further: 0% is about no effect; nearly all actives have a fitted effect of over 55% in size
Details: yeast TDP-43 toxicity rescue, BacTiter-Glo growth, 24 h; series mostly up to 46.1 µM; growth rescue (activation): at the top concentration
Method in brief: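 TDP-43-expressing yeast, pregrown in raffinose, seeded at OD600 0.02 in galactose medium with compound for 24 hr at 30 deg C. Growth read by BacTiter-Glo luminescence, so rescue of toxicity appears as activation.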

| SMILES | growth rescue (activation) |
| --- | --- |
| COc1ccccc1-n1cnnc1SCC(=O)Nc1cc(C)on1 | inactive: -10% |
| CC(=O)c1ccccc1NS(C)(=O)=O | inactive: -2.51% |
| CC1(C(=O)NS(=O)(=O)c2ccccc2)CCN1C(=O)C1CCCCC1 (configuration not stated) | inactive: 2.63% |
| CCOc1ccc(C(C(=O)NC2CCCCC2)N(C(=O)Cc2cccs2)c2ccc(-n3cnnn3)c(OC)c2)cc1 (configuration not stated) | inactive: 15.9% |
| CCOC(=O)c1cn2ccc(C)cc2n1 | inactive: -7.79% |
| COC(=O)C1=C(C(=O)c2ccc(C)cc2)C(c2ccccc2)n2nnnc2N1 (configuration not stated) | inactive: -11.5% |
| CCOC(=O)c1sc(NC(=O)C(C)Sc2nnc(N)s2)nc1C (configuration not stated) | inactive: 9.72% |
| COc1ccc(Cl)cc1C(=O)NNC(=O)COC(=O)c1ccc(Br)o1 | inactive: 2.62% |
| COc1cccc(C(=O)NNC(=O)Cc2ccc([N+](=O)[O-])cc2)c1 | inactive: -1.86% |
| COc1ccccc1/C=C1/C(=O)N(c2ccccc2)N=C1C | inactive: -13.3% |
| Cc1cc(C)n2nc(C(=O)OCC(=O)c3ccccc3)nc2n1 | inactive: -70% |
| CC(=O)Nc1ccc(-n2nnnc2SCC(=O)NC2CCCC2)cc1 | inactive: 0.74% |
| COc1ccc(C(=O)N(CC2CCCO2)C(C(=O)NCCC(C)C)c2ccc(C)cc2)cc1OC (configuration not stated) | inactive: 9.81% |
| CC(=O)Nc1ccc(NC(=O)C(Sc2ccccc2)c2ccccc2)cc1 (configuration not stated) | inactive: -2.58% |
| O=C(CSc1nnc(-c2cccc(S(=O)(=O)N3CCCC3)c2)n1-c1ccccc1)Nc1ccc(C(=O)O)cc1 | inactive: 2.5% |
| O=C(COC(=O)/C=C/c1ccc(Cl)cc1)NCCN1C(=O)CSC1=O | inactive: 4.55% |
| CCOc1cc(/C=C2\SC(=Nc3ccc(CC)cc3)NC2=O)ccc1OCC(=O)O | inactive: 14.4% |
| CCN(C(=O)CSc1nnc(Nc2ccccc2C)s1)C1CCS(=O)(=O)C1 (configuration not stated) | inactive: -3% |
| CC1CCCC(C)N1/N=C/c1ccccc1F (configuration not stated) | inactive: -24.7% |
| O=C(O)c1sc2cc(C(F)(F)F)cnc2c1-c1ccccn1 | inactive: -10.3% |
| CCOCCCNc1ccc(N2C(=O)CCCC2=O)cc1[N+](=O)[O-] | inactive: -18.1% |
| CCSc1nnc(NC(NC(C)=O)(C(F)(F)F)C(F)(F)F)s1 | inactive: -0.948% |

| SMILES | growth rescue (activation) |
| --- | --- |
| CCN(C(=O)c1cccc(S(=O)(=O)N(C)C)c1)C12CC3CC(CC(C3)C1)C2 | inactive: -15.6% |
| O=[N+]([O-])c1cccc(/C=N/NC2CCS(=O)(=O)C2)c1 (configuration not stated) | inactive: 1.55% |
| Cc1ccc(NC(=O)c2cccc(C(=O)Nc3ccc(C)cc3C(=O)O)c2)c(C(=O)O)c1 | inactive: -1.05% |
| O=C(O)/C=C/C(=O)NCCNc1ncc(C(F)(F)F)cc1Cl | inactive: -19% |
| C=CCc1cccc2cc(C(=O)N3CCN(c4ccccn4)CC3)c(=O)oc12 | inactive: 6.94% |
| COc1ccc(C(=O)COC(=O)CNC(=O)c2cccc(OC(F)F)c2)cc1 | inactive: 21.5% |
| CCC(CC)NC(=O)CC(c1ccccc1)c1ccccc1 | inactive: -22.5% |
| CCn1c(SCC(=O)NCc2ccc3c(c2)OCO3)nnc1-c1ccco1 | inactive: -6.31% |
| O=C(N/N=C/c1ccc(-c2ccccc2)o1)c1ccccc1O | inactive: 6.14% |
| O=C(O)C(Cc1c[nH]c2ccccc12)NS(=O)(=O)c1ccccc1 (configuration not stated) | inactive: 9.01% |
| COc1ccc(OC)c2c1cc(C(=O)N[C@@H](Cc1ccccc1)C(=O)O)n2C | inactive: -1.49% |
| Cc1cc(S(=O)(=O)Nc2ccc3c(c2)n(C)c(=O)n3C)ccc1F | inactive: -7.17% |
| COCCNC(=O)c1c(N)n(-c2cccc(C)c2)c2nc3ccccc3nc12 | inactive: 39.3% |
| O=C(CSc1nc(O)c(C(c2ccccc2)c2ccccc2)c(=O)[nH]1)N1CCOCC1 | inactive: -3.39% |
| CC1(C)OC(=O)C(=C2CCCN2)C(=O)O1 | inactive: -8.71% |
| O=C(O)CNC(=O)C(c1ccccc1)c1ccccc1 | inactive: -10.1% |
| O=C(NCc1ccco1)c1cc(Cl)nc(Cl)c1 | inactive: 15.4% |
| COc1ccccc1N1CCN(C(=O)C2CC=CCC2C(=O)O)CC1 (configuration not stated) | inactive: -10.8% |
| O=C(CC1C(=O)NCCN1Cc1ccc(F)c(F)c1)NCCCn1ccnc1 (configuration not stated) | inactive: 2.38% |
| COc1ccc(/C=C2/C(=O)N(c3ccccc3)N=C2C)cc1OC | inactive: -2.3% |
| CC(C)CC(=O)NC1(C(F)(F)F)C(=O)N(CC(C)C)C2=C1C(=O)CC(C)(C)C2 (configuration not stated) | inactive: 26.4% |
| O=C(O)CCc1ccc(-c2cccs2)n1CCc1ccccc1 | inactive: 6.13% |

| SMILES | growth rescue (activation) |
| --- | --- |
| O=C(c1cc(Br)ccc1Cl)N1CCN(c2ncccn2)CC1 | inactive: 19.5% |
| O=C1c2ccccc2NC(c2ccccc2)N1Cc1ccco1 (configuration not stated) | inactive: -5.64% |
| COc1ccc(/C=N/OC(=O)Nc2ccc(Cl)cc2)c(OC)c1 | inactive: 20.1% |
| O=C(c1ccco1)N1CCN(C(=O)c2ccccc2OCc2ccccc2)CC1 | inactive: 9.23% |
| COc1cc(OC)cc(N(C(=O)C2COc3ccccc3O2)C(C(=O)NC2CCCCC2)c2ccc(O)cc2)c1 (configuration not stated) | inactive: -6.46% |
| COC(=O)COc1ccc(-n2cnnn2)cc1 | inactive: -6.11% |
| Cc1ccccc1NN1C(=O)C=CC1=O | inactive: -41% |
| CN(C)Cc1c(-c2ccc(Cl)cc2)nc2ccccn12 | inactive: -4.15% |
| C=CCNC(=O)NC(=O)Cn1c(=O)c2c(ncn2CC)n(Cc2ccccc2)c1=O | inactive: -9.26% |
| CC(NC(=O)CSc1ncn[nH]1)c1ccc(Cl)cc1Cl (configuration not stated) | inactive: -17.5% |
| Cc1ccc(-c2noc(C3CCCN(C(=O)c4ccccc4Br)C3)n2)o1 (configuration not stated) | inactive: 26.2% |
| Cc1cccc(C)c1NC(=O)Cn1c(=O)c(N2CCCCC2)c(N)n(C)c1=O | inactive: -1.3% |
| Cc1sc2nc(SCC(=O)O)[nH]c(=O)c2c1C | inactive: -1.13% |
| CC(=O)N/C(=C/c1ccc2c(c1)OCO2)C(=O)Nc1ccccc1 | inactive: 10.3% |
| O=C(Nc1ccc(F)cc1F)NC1CC(=O)N(Cc2ccccc2)C1 (configuration not stated) | inactive: -11% |
| CON(c1nc(Cl)nc(N(C)C)n1)S(=O)(=O)c1ccccc1Cl | inactive: 10.1% |
| O=C1/C(=C/c2cccs2)N=C(c2cccs2)N1Nc1ccccc1 | inactive: -33.2% |
| CCOC(=O)c1cc(-c2ccc(OC(F)F)cc2)nc2nc(SC)[nH]c(=O)c12 | inactive: 12.3% |
| Cc1nc2ccccc2n1C1CCN(CC(=O)Nc2ccccc2Br)CC1 | inactive: 3.55% |
| Cc1cccc(OCC(=O)NCCCNC(=O)c2cnccn2)c1 | inactive: -29.6% |
| COCCn1c(SCC(=O)Nc2ccc3[nH]c(=O)[nH]c3c2)nc2ccccc2c1=O | inactive: 23.2% |
| Cc1ccc(CN2CCN(Cc3nc4c(s3)CCCC4)CC2CCO)cc1 (configuration not stated) | inactive: -0.164% |

| SMILES | growth rescue (activation) |
| --- | --- |
| Cc1cc(NC(=O)CSc2nc3c(C)cccc3cc2C)no1 | inactive: 5.55% |
| CC1(C(=O)NS(=O)(=O)c2cccs2)CCN1C(=O)C1CCCCC1 (configuration not stated) | inactive: -12.7% |
| CC(C)CNC(=O)c1cccc(NC(=O)COc2cccc([N+](=O)[O-])c2)c1 | inactive: 6.28% |
| COc1ccc(C(=O)C2CCN(C(=S)NCCc3ccc(OC)c(OC)c3)CC2)cc1 | inactive: 5.78% |
| CC1Cc2ccccc2N1Cc1cccc([N+](=O)[O-])c1 (configuration not stated) | inactive: 27.1% |
| Cc1ccc(CN(C(=O)c2csnn2)C(C(=O)NC2CCCC2)c2cccnc2)cc1 (configuration not stated) | inactive: 11.2% |
| Cc1ccc(NC(=O)COC(=O)c2ccc(C)c(S(=O)(=O)N3CCOCC3)c2)cc1 | inactive: 26% |
| O=C1CN(S(=O)(=O)c2ccc([N+](=O)[O-])cc2)CC(=O)N1 | inactive: 5.69% |
| NS(=O)(=O)c1cccc(NC(=S)NCc2ccccc2)c1 | inactive: 8.98% |
| CNc1cncc(-c2cnn(CC(C)C)c2)n1 | inactive: 20.5% |
| Cc1ccc(CN(Cc2ccco2)S(=O)(=O)c2ccc(S(=O)(=O)NCC3CCCO3)cc2)cc1 (configuration not stated) | inactive: 26.5% |
| COc1ccc(C2=CSC3=NCCN23)cc1 | inactive: 9.36% |
| O=C(O)CCCC(=O)Nc1nc(-c2ccc(F)cc2)cs1 | inactive: -2.92% |
| Nc1ccc(S(=O)(=O)NC2=NCCCCC2)cc1 | inactive: 24.9% |
| C[N+]1(C2CCC3CCCC2C3O)CCCCC1 (configuration not stated) | inactive: 7.1% |
| N/C(=N/O)C(c1ccccc1)c1ccccc1 | inactive: 17.5% |
| Cc1cccc2[nH]c(CN(C)C(=O)C3CCC(=O)N(CCc4ccccc4)C3)nc12 (configuration not stated) | inactive: -20.9% |
| C[n+]1cc(-c2ccccc2)oc1-c1ccccc1 | inactive: 13.7% |
| O=[N+]([O-])c1ccc2[nH]c(O)c(N=NC3CCS(=O)(=O)C3)c2c1 (configuration not stated) | inactive: 9.27% |
| CCCN(CCC)S(=O)(=O)c1ccc(C(=O)Nc2nnc(-c3cccc(OC)c3)o2)cc1 | inactive: 7.02% |
| CCCNC(=O)C1(C)CCN(C(=O)c2cccc(C#N)c2)C1 (configuration not stated) | inactive: 7.23% |
| O=C(CN(Cc1ccccc1Cl)C(=O)c1csnn1)NCc1ccc2c(c1)OCO2 | inactive: -12.5% |

| SMILES | growth rescue (activation) |
| --- | --- |
| Cc1cccc(C(=O)OCC(=O)N2CC(C)OC(C)C2)c1C (configuration not stated) | inactive: -12.8% |
| O=C(NC1CCS(=O)(=O)C1)/C(=C\c1ccco1)NC(=O)c1ccccc1 (configuration not stated) | inactive: -2.02% |
| O=C(Nc1cccc(S(=O)(=O)c2cccc(NC(=O)c3ccco3)c2)c1)c1ccco1 | inactive: 14.5% |
| O=C(CN1CCCCCC1)Nc1cc([N+](=O)[O-])ccc1Cl | inactive: 19.9% |
| Cc1cccc(N(C(=O)c2ccco2)C(C(=O)NC2CCCC2)c2cccnc2)c1C (configuration not stated) | inactive: -0.336% |
| O=C(CCS(=O)(=O)c1ccc(Br)cc1)Nc1ccc(Br)cc1F | inactive: 17.1% |
| O=C1CC(N2CCN(c3ccc(O)cc3)CC2)C(=O)N1c1ccc2c(c1)OCO2 (configuration not stated) | inactive: 5.28% |
| CCOC(=O)N1CCN(S(=O)(=O)c2cc(-c3nn4c(C)nnc4c4ccccc34)ccc2C)CC1 | inactive: 10.3% |
| COc1ccc(/C=C/C(=O)NC(=S)Nc2ccc(S(=O)(=O)Nc3cc(OC)ncn3)cc2)cc1 | inactive: 7.02% |
| CCOc1ccc(NC(=O)N2CCCC2C(=O)NCC2CCCO2)cc1 (configuration not stated) | inactive: -11.7% |
| COc1ccc(OC)c(C(O)c2ncc(-c3ccc(C(F)(F)F)cc3)[nH]2)c1 (configuration not stated) | inactive: 3.58% |
| Cc1cc(=O)[nH]c(SCC(=O)NCc2ccc3c(c2)OCO3)n1 | inactive: -25.9% |
| O=C(Nc1ccc(O)cc1)c1cc2n(n1)C(C(F)(F)F)CC(c1ccco1)N2 (configuration not stated) | inactive: 9.03% |
| COc1ccccc1/C=N/OCC(=O)NCc1ccc2c(c1)OCO2 | inactive: 8.27% |
| CC(=O)c1ccc(N2CCN(C(=O)Nc3cccc(F)c3)CC2)cc1 | inactive: 13.6% |
| Cc1ccc(C(=O)N/N=C\c2ccc(-c3ccc([N+](=O)[O-])cc3)o2)cn1 | inactive: -2.21% |
| CC(=O)N1N=C(c2ccc(Cl)cc2)CC1c1ccco1 (configuration not stated) | inactive: 12.2% |
| COc1ccc(S(=O)(=O)Nc2nc3ccccc3nc2NCC2CCCO2)cc1 (configuration not stated) | inactive: 20.1% |
| CCc1nc2ccc(C(=O)Nc3cccc(OCC(=O)N(C)C)c3)cn2c1N(C)Cc1cc2ccccc2s1 | inactive: 6.58% |
